Assay: label from the status in PepcDB records

In the case of “EEVFGVKKWECTVISNDNKATFIKELKLAIPEGEEVPFRAGGYIQIEAPPHTVAYKDFDIPKEYHEDWDKYNLWQYVSKVDEPILRAYSMASYPEEKGIIMLNVRIATPPPRVPDAPPGQMSSYIWSLKPGDKVTISGPFGEFFAKDTDAEMVFIGGGAGMAPMRSHIFDQLKRLNSKRKITFWYGARSKREMFYVEDFDQLAAEFPNFTWHVALSDPLPEDNWDGYTGFIHNVVYENHLKNHEAPEDCEFYMCGPPIMNQSVIKMLKDLGVEDENILLDDFGG”, the protein production is reported as “failed”.

Source: a protein production outcome set (Wang et al. 2014)
